{"source": "the supplement of paper PMC8728848", "binders": {"B1": {"name": "Thrombomodulin (Mus musculus) (protein)", "chain": "ALAKLQPTGSQCVEHECFALFQGPATFLDASQACQRLQGHLMTVRSSVAADVISLLLSQSSMDLGPWIGLQLPQGCDDPVHLGPLRGFQWVTGDNHTSYSRWARPNDQTAPLCGPLCVTVSTATEAAPGEPAWEEKPCETETQGFLCEFYFTASC"}}, "test_in_all_cases": "glycan array binding signal (z-score within array); higher = stronger binding", "settings_in_all_cases": "glycan notation: IUPAC condensed, linker removed", "key": {"[1]": {"biological_target": "Gal(b1-4)GlcNAc(b1-2)Man(a1-6)[Man(a1-3)]Man(b1-4)GlcNAc(b1-4)GlcNAc", "in_short": "(§1)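 The binding signal is a Z-score computed within each array and averaged over linkers. Arrays of the same protein sequence at different concentrations or buffers were also averaged together. Data originate from 3228 arrays in the Consortium for Functional Glycomics database, kept only where the protein sequence was available.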"}, "[2]": {"biological_target": "Gal(b1-4)GlcNAc(b1-2)[Gal(b1-4)GlcNAc(b1-4)]Man(a1-3)[Gal(b1-4)GlcNAc(b1-2)Man(a1-6)]Man(b1-4)GlcNAc(b1-4)GlcNAc", "in_short": "as §1"}, "[3]": {"biological_target": "Gal(b1-4)GlcNAc(b1-2)[Gal(b1-4)GlcNAc(b1-4)]Man(a1-3)[Gal(b1-4)GlcNAc(b1-2)[Gal(b1-4)GlcNAc(b1-6)]Man(a1-6)]Man(b1-4)GlcNAc(b1-4)GlcNAc", "in_short": "as §1"}, "[4]": {"biological_target": "Gal(b1-4)GlcNAc(b1-2)[Gal(b1-4)GlcNAc(b1-4)]Man(a1-3)[GlcNAc(b1-4)][Gal(b1-4)GlcNAc(b1-2)Man(a1-6)]Man(b1-4)GlcNAc(b1-4)GlcNAc", "in_short": "as §1"}, "[5]": {"biological_target": "Gal(b1-4)GlcNAc(b1-2)[Gal(b1-4)GlcNAc(b1-4)]Man(a1-3)[GlcNAc(b1-4)][Gal(b1-4)GlcNAc(b1-2)[Gal(b1-4)GlcNAc(b1-6)]Man(a1-6)]Man(b1-4)GlcNAc(b1-4)GlcNAc", "in_short": "as §1"}, "[6]": {"biological_target": "Gal(b1-4)GlcNAc(b1-2)[Gal(b1-4)GlcNAc(b1-6)]Man(a1-6)[Gal(b1-4)GlcNAc(b1-2)Man(a1-3)]Man(b1-4)GlcNAc(b1-4)GlcNAc", "in_short": "as §1"}, "[7]": {"biological_target": "Gal(b1-4)GlcNAc(b1-2)[Gal(b1-4)GlcNAc(b1-6)]Man(a1-6)[Gal(b1-4)GlcNAc(b1-2)Man(a1-3)]Man(b1-4)GlcNAc(b1-4)[Fuc(a1-6)]GlcNAc", "in_short": "as §1"}, "[8]": {"biological_target": "Gal(b1-4)GlcNAc(b1-2)[Gal(b1-4)GlcNAc(b1-6)]Man(a1-6)[GlcNAc(b1-4)][Gal(b1-4)GlcNAc(b1-2)Man(a1-3)]Man(b1-4)GlcNAc(b1-4)GlcNAc", "in_short": "as §1"}, "[9]": {"biological_target": "Gal(b1-4)GlcNAc(b1-2)[Gal(b1-4)GlcNAc(b1-6)]Man(a1-6)[GlcNAc(b1-4)][Gal(b1-4)GlcNAc(b1-2)[Gal(b1-4)GlcNAc(b1-4)]Man(a1-3)]Man(b1-4)GlcNAc(b1-4)[Fuc(a1-6)]GlcNAc", "in_short": "as §1"}, "[10]": {"biological_target": "Gal(b1-4)GlcNAc(b1-3)Gal(b1-3)GalNAc", "in_short": "as §1"}, "[11]": {"biological_target": "Gal(b1-4)GlcNAc(b1-3)Gal(b1-3)GlcNAc", "in_short": "as §1"}, "[12]": {"biological_target": "Gal(b1-4)GlcNAc(b1-3)Gal(b1-4)Glc", "in_short": "as §1"}, "[13]": {"biological_target": "Gal(b1-4)GlcNAc(b1-3)Gal(b1-4)GlcNAc", "in_short": "as §1"}, "[14]": {"biological_target": "Gal(b1-4)GlcNAc(b1-3)Gal(b1-4)GlcNAc(b1-2)Man(a1-3)[Gal(b1-4)GlcNAc(b1-3)Gal(b1-4)GlcNAc(b1-2)Man(a1-6)]Man(b1-4)GlcNAc(b1-4)GlcNAc", "in_short": "as §1"}, "[15]": {"biological_target": "Gal(b1-4)GlcNAc(b1-3)Gal(b1-4)GlcNAc(b1-2)Man(a1-3)[Gal(b1-4)GlcNAc(b1-3)Gal(b1-4)GlcNAc(b1-2)Man(a1-6)]Man(b1-4)GlcNAc(b1-4)[Fuc(a1-6)]GlcNAc", "in_short": "as §1"}, "[16]": {"biological_target": "Gal(b1-4)GlcNAc(b1-3)Gal(b1-4)GlcNAc(b1-2)[Gal(b1-4)GlcNAc(b1-3)Gal(b1-4)GlcNAc(b1-6)]Man(a1-6)[Gal(b1-4)GlcNAc(b1-3)Gal(b1-4)GlcNAc(b1-2)Man(a1-3)]Man(b1-4)GlcNAc(b1-4)GlcNAc", "in_short": "as §1"}, "[17]": {"biological_target": "Gal(b1-4)GlcNAc(b1-3)Gal(b1-4)GlcNAc(b1-2)[Gal(b1-4)GlcNAc(b1-3)Gal(b1-4)GlcNAc(b1-6)]Man(a1-6)[Gal(b1-4)GlcNAc(b1-3)Gal(b1-4)GlcNAc(b1-2)Man(a1-3)]Man(b1-4)GlcNAc(b1-4)[Fuc(a1-6)]GlcNAc", "in_short": "as §1"}, "[18]": {"biological_target": "Gal(b1-4)GlcNAc(b1-3)Gal(b1-4)GlcNAc(b1-3)Gal(b1-4)GlcNAc", "in_short": "as §1"}, "[19]": {"biological_target": "Gal(b1-4)GlcNAc(b1-3)Gal(b1-4)GlcNAc(b1-3)Gal(b1-4)GlcNAc(b1-2)Man(a1-3)[Gal(b1-4)GlcNAc(b1-3)Gal(b1-4)GlcNAc(b1-3)Gal(b1-4)GlcNAc(b1-2)Man(a1-6)]Man(b1-4)GlcNAc(b1-4)GlcNAc", "in_short": "as §1"}, "[20]": {"biological_target": "Gal(b1-4)GlcNAc(b1-3)Gal(b1-4)GlcNAc(b1-3)Gal(b1-4)GlcNAc(b1-2)Man(a1-3)[Gal(b1-4)GlcNAc(b1-3)Gal(b1-4)GlcNAc(b1-3)Gal(b1-4)GlcNAc(b1-2)Man(a1-6)]Man(b1-4)GlcNAc(b1-4)[Fuc(a1-6)]GlcNAc", "in_short": "as §1"}, "[21]": {"biological_target": "Gal(b1-4)GlcNAc(b1-3)Gal(b1-4)GlcNAc(b1-3)Gal(b1-4)GlcNAc(b1-2)[Gal(b1-4)GlcNAc(b1-3)Gal(b1-4)GlcNAc(b1-3)Gal(b1-4)GlcNAc(b1-6)]Man(a1-6)[Gal(b1-4)GlcNAc(b1-3)Gal(b1-4)GlcNAc(b1-3)Gal(b1-4)GlcNAc(b1-2)Man(a1-3)]Man(b1-4)GlcNAc(b1-4)[Fuc(a1-6)]GlcNAc", "in_short": "as §1"}, "[22]": {"biological_target": "Gal(b1-4)GlcNAc(b1-3)Gal(b1-4)GlcNAc(b1-3)Gal(b1-4)GlcNAc(b1-3)Gal(b1-4)GlcNAc(b1-2)Man(a1-3)[Gal(b1-4)GlcNAc(b1-3)Gal(b1-4)GlcNAc(b1-3)Gal(b1-4)GlcNAc(b1-3)Gal(b1-4)GlcNAc(b1-2)Man(a1-6)]Man(b1-4)GlcNAc(b1-4)GlcNAc", "in_short": "as §1"}}, "note": "Some of the results follow."}
{"binder": "B1", "values": [{"measurement": "glycan array binding signal (z-score)", "setting": "[1]", "value": 0.088}, {"measurement": "glycan array binding signal (z-score)", "setting": "[2]", "value": -0.077}, {"measurement": "glycan array binding signal (z-score)", "setting": "[3]", "value": -0.205}, {"measurement": "glycan array binding signal (z-score)", "setting": "[4]", "value": -0.089}, {"measurement": "glycan array binding signal (z-score)", "setting": "[5]", "value": -0.075}, {"measurement": "glycan array binding signal (z-score)", "setting": "[6]", "value": -0.477}, {"measurement": "glycan array binding signal (z-score)", "setting": "[7]", "value": 0.056}, {"measurement": "glycan array binding signal (z-score)", "setting": "[8]", "value": -0.282}, {"measurement": "glycan array binding signal (z-score)", "setting": "[9]", "value": -0.285}, {"measurement": "glycan array binding signal (z-score)", "setting": "[10]", "value": 0.012}, {"measurement": "glycan array binding signal (z-score)", "setting": "[11]", "value": -0.073}, {"measurement": "glycan array binding signal (z-score)", "setting": "[12]", "value": 0.285}, {"measurement": "glycan array binding signal (z-score)", "setting": "[13]", "value": -0.067}, {"measurement": "glycan array binding signal (z-score)", "setting": "[14]", "value": 1.25}, {"measurement": "glycan array binding signal (z-score)", "setting": "[15]", "value": -0.049}, {"measurement": "glycan array binding signal (z-score)", "setting": "[16]", "value": -0.006}, {"measurement": "glycan array binding signal (z-score)", "setting": "[17]", "value": 0.053}, {"measurement": "glycan array binding signal (z-score)", "setting": "[18]", "value": -0.277}, {"measurement": "glycan array binding signal (z-score)", "setting": "[19]", "value": 0.084}, {"measurement": "glycan array binding signal (z-score)", "setting": "[20]", "value": 0.364}, {"measurement": "glycan array binding signal (z-score)", "setting": "[21]", "value": 0.05}, {"measurement": "glycan array binding signal (z-score)", "setting": "[22]", "value": -0.219}]}
